Reference: the supplement of paper PMC3724861
The other results are listed elsewhere or left out.

Test system: T1, Caupolican (Caup) homeodomain DNA-binding domain
T1 sequence: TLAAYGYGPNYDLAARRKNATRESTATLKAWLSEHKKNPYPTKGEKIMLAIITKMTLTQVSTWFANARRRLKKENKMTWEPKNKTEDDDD
Assay: PBM E-score (8-mer, recovered from the published 9-mer minima) (E-score (dimensionless, -0.5 to 0.5)); Drosophila protein; higher = stronger relative binding preference, active = 0.31 or more
How it was run: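 Caup's homeodomain DNA-binding domain (residues 214-303) was produced by in vitro transcription and translation and applied at 100 nM to custom-designed protein binding microarrays. Each value is an enrichment score giving relative binding preference for a short DNA word; higher means stronger. Published 9-mer scores were the minimum of their two constituent 8-mer scores, and the 8-mer values were recovered from those minima. A cutoff of 0.31 marks candidate binding sequences.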

PBM E-score, ≥ -0.125:
ACTCCCCG

PBM E-score, ≥ 0.162:
ATTCACAA

PBM E-score, inactive:
AGGGGAAT -0.0662
CGTACCTA 0.0287
TATTGCAA 0.109
CGCAAAAG -0.143
GATGCCCA -0.0463
GAGGATGC -0.00785
TTAGTGAA 0.101
ACTATATG 0.107
CAAGGCCC -0.247
AGAATCGG -0.114
CAAAAGAC 0.03
ATGTAGCA 0.265
AAGCAAGG -0.0328
AACCTCAG -0.0935
TACCAGGA 0.0883
CGGGGAGA -0.184
CCCTAAAG -0.168
CTGAGCTC -0.143
CGTGATCC -0.129
CTGGCGCC -0.262
CACCCTAC 0.114
CACATTGC 0.108
CTGCCTTA -0.137
GCATATAA 0.134
CTCGCTCA -0.166
CTCCGCAG -0.249
ACTACGAC 0.0897
ATATCTGG 0.0284
CTTCATTC -0.0755
TAAATCCA 0.0483
ATACGTGG 0.0844
GGTTTGAC 0.0197
CGTAGAAG -0.0399
AGTGAACT 0.0325
CTTCCCGC -0.131
CATACGAA 0.0844
GTCCCCTA -0.0942
GAGTTGAA -0.00985
GATAAGGC -0.0913
AAAAGGCG -0.0753
CCTAATCC 0.0034
AATAAATC -0.0451
AGAGCGGG -0.187
CGAAGGCC -0.288
AGGGCCCA -0.258
ACCCATCA 0.034
ATCCGATG 0.0252
ATCGGTGG -0.115
GATCTGGC -0.0642
GGGGGCAC -0.24
CAGAGCAC -0.0664
GAATGGGC -0.0726
CGCACGCG -0.117
CCCCTTCC -0.267
ACTAAAGG -0.012
CGCGTTTA 0.00596
AAGGAGAC -0.0118
CATGGGAA 0.0743
CTTGTGGA 0.0455
ATGTACGG 0.211
CTAATTAC 0.127
AGAGTCAA -0.0486
AGCAATAT 0.129
GGTAATAA 0.179
CGAAGCCG -0.15
AGGTAGCA -0.0174
AGTTGGCG -0.102
GATTATCA 0.171
GACAGAGA 0.0812
GATGGTAA 0.0084
AATAAAAA 0.192
GAGTTAGA -0.112
ACCATAGG -0.0178
CGAAGTCG -0.0271
CAAGTGTG 0.0193
CGAACACG 0.258
CCCACGCG -0.233
GTGCTTGA -0.00605
GCGTATCC -0.0184
ACCCATTA 0.0233
CGGTACGA -0.0387
GGCTTGGA -0.0906
CCGATGCG -0.173
GGTGACCA -0.158
CGACCCTA -0.119
CTTAAATA -0.0266
AGTCGTAT 0.0865
GCCAGTTA -0.0296
GGCGGACA 0.0078
AATTGCCG -0.0697
CCGGACGG -0.297
CTCTAGGC -0.16
CTGCGTGC -0.0735
CCCTGCTC -0.156
GGAGACCA -0.182
CGGCATGA -0.00957
CATATTCA 0.172
AGGGTGAA -0.0944
CTTTACCC -0.00063
CCTGAAAC -0.0343
CACTGATC 0.00761
CGCCCTTA -0.15
AATGATAC 0.183
CACTTCAA 0.0925
CGAGTACC 0.0961
AGGCGCAC -0.158
TTCTGAAA 0.0593
CATTTGCC -0.0757
ATACTGTA 0.219
ACAACCGG 0.111
GACGTCTA -0.0522
AAAGAGGA -0.11
GTATATCA 0.235
GCCGAGCA -0.17
AAATTAGC 0.0396
CGGTCAGC -0.134
CACCTCCC -0.183
AAACAACT 0.246
GGAAGGGA -0.267
ACGGCCGC -0.183
AGAAGGGA -0.161
GGAGGTTA -0.0798
GTTGGAGA -0.0326
CTCTCCCA -0.151
GGGTTCAA -0.054
ATTTTTCG 0.124
CCGGATAA -0.0194
GTATATGA 0.179
ATTTACTA 0.194
ACGGCAGG -0.229
TCCTCTCA -0.0753
GATGGAAA 0.0241
ACCAAGTA 0.0922
ACGGGAAT -0.0246
CTATTGTC 0.0455

PBM E-score, ≥ 0.00514:
CGACGTCG

PBM E-score, ≥ 0.0854:
TAAAGTCA

PBM E-score, ≥ -0.105:
AAGGGGCT

PBM E-score, active:
ACATGCTA 0.352

PBM E-score, ≥ -0.0296:
AACTGGCT
